For 110 molecules, z-score results are on record in PubChem BioAssay AID488969 (Vanderbilt High Throughput Screening Facility, 2010).

Structures are written as SMILES. The full ranking holds about 110,000 compounds; the median of “z-score” is about -0.1, and the highest 2% start at about 2. The list shows a part of the results. Activity calls are given as the source filed them.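 How the source made its calls: active means z-score in the third read window above 3 or below -3; inactive means the rest.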

For the assay, the target named is Metabotropic glutamate receptor 8 (Rattus norvegicus) (UniProt P70579). The assay can be described thus: mGluR8 Gi/Go-coupled signaling modulation – cell-based, rat, thallium flux, HTS, primary screen (AID 488969). Conditions: HEK293 rat mGluR8, GIRK (G protein-gated inwardly rectifying potassium channel) thallium flux, FluoZin2; at 10 µM; stronger effect = higher value; submaximal glutamate (EC20) added with thallium.
Sequence of UniProt P70579 (P70579 whole entry, looked up): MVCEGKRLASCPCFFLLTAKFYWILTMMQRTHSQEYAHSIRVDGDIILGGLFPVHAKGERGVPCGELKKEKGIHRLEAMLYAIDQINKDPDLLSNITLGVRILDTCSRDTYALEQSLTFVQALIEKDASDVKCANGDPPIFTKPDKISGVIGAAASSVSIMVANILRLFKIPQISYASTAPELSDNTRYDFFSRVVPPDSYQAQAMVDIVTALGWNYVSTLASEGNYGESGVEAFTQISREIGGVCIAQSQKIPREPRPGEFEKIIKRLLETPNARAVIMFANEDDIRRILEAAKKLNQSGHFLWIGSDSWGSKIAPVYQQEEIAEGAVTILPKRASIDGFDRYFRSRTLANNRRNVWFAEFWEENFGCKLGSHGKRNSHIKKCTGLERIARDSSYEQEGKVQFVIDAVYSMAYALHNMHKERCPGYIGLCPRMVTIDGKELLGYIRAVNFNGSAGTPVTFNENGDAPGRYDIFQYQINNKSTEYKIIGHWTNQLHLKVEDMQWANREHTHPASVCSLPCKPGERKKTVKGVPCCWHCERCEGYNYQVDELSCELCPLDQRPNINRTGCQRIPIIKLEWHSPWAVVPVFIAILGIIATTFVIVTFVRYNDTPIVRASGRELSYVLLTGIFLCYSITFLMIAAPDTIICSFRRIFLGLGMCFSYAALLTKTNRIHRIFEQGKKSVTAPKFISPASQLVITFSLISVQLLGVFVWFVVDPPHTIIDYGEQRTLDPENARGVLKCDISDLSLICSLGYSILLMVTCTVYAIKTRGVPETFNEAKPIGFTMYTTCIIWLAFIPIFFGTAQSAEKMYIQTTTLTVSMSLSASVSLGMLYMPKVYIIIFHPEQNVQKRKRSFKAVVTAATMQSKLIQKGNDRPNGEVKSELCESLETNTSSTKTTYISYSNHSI
In the case of `CCCOc1ccc(Cc2nc(N)nc(N)n2)cc1`, the z-score is -0.499.

As to `Nc1nnc(SCCCC(=O)c2ccc(F)cc2)s1`, the z-score was -0.825.

Take `Cc1cc(C(=O)CSc2nnnn2C)c(C)n1-c1ccc2c(c1)OCCO2`: the z-score amounted to 0.341. `O=C(CCCN1C(=O)c2ccccc2C1=O)Nc1ccc(S(=O)(=O)N2CCOCC2)cc1` showed a z-score of 0.201. For `CCCCNC(=O)CSc1nc2ccc(N3CCOCC3)cc2c(=O)n1CCc1ccccc1`, the z-score worked out at 1.19.

`O=C(NCN1C(=O)C2C3C=CC(C3)C2C1=O)Nc1nncs1` (stereo not given): the z-score was 1.07. Regarding `CCC(C)NCCOCCOc1ccc(F)cc1` (stereo not given), the z-score was -0.0108. The same measure for `CC(=O)N(C(C)=O)S(=O)(=O)c1ccc(N=NN2CCCCC2)cc1`: -0.235; for `O=C(COC(=O)C(O)c1ccccc1)c1ccc2c(c1)OCCO2` (stereo not given): 0.13; for `O=C(Nc1cc(F)cc(F)c1)c1ccc(NCCc2ccccc2)c([N+](=O)[O-])c1`: -0.466. Consider `COc1ccc(C)cc1S(=O)(=O)Nc1cccc(Cl)c1`, for which the z-score was -0.327.

Consider `COC(=O)C(NNc1ccccc1C)(NC(=O)c1ccc(F)cc1)C(F)(F)F` (stereo not given), for which the z-score is -0.187. With `Cc1ccc(NC(=O)C2(S(=O)(=O)c3ccc(C)cc3)CC2)cc1` the figure was -0.214; with `COc1cc(N=c2ssnc2Cl)c(OC)cc1Cl`, 0.15; with `COc1ccc(-n2nnc3c(SCc4ccccc4)ncnc32)cc1`, -0.518. On to `COc1ccc(NCc2nnc(SCC(=O)Nc3cc(C(F)(F)F)ccc3Cl)o2)cc1`, for which the z-score was -0.363. The same measure for `CCCCn1c(SCC(=O)NCc2ccco2)nc2c(sc3ccccc32)c1=O`: -0.00992. Regarding `CCn1c(SCC(=O)Nc2ccc(C(=O)OC)cc2)nc2cccnc21`, the z-score is -0.121.

The molecule `Cn1cc(Br)c(C(=O)NC2CCCCC2)n1` returned a z-score of 0.405. Regarding `CCN(C(=O)CCN1C(=O)c2ccccc2C1=O)C1CCCCC1`, the z-score came to 0.156. On to `COc1ccc(S(=O)(=O)Nc2ccccc2-c2nnn(CC(=O)Nc3ccccc3OC)n2)cc1`, for which the z-score was -0.0696.

As for `c1ccc2[nH]c(CN3CCCCC3)nc2c1`, the z-score is -0.295. The molecule `CN(C)S(=O)(=O)c1cccc(C(=O)Nc2ccccc2[N+](=O)[O-])c1` showed a z-score of -0.148. The same measure for `COc1ccc(-c2nnc(SCc3cccc(C)c3)n2N)cc1`: -0.0565; for `CC(C)CC(=O)NN(C)c1nc(-c2ccccc2)nnc1C(F)(F)F`: 0.0396; for `O=C(O)/C=C/C(=O)NNC(=O)c1ccccc1Br`: -0.0897. Molecule `COc1ccccc1NC(=O)CSc1nnc(Cc2ccccc2)o1` gave a z-score of -0.0662. With `Cc1ccc(S(=O)(=O)N(C)C)cc1NC(=O)/C=C/c1cccs1` the figure was -0.153; with `CC(Sc1sc(=S)sc1SC(C)C(=O)O)C(=O)O` (stereo not given), -0.203; with `CSc1n[nH]c(NCc2ccc(C)cc2)n1`, 0.112. In the case of `Cn1c(N)c(C(=O)COC(=O)C2(c3ccc(Cl)cc3)CCCC2)c(=O)n(C)c1=O`, the z-score is -2.63.

In turn, `CCOC(=O)C1=C(C)Nc2sc(C(=O)c3ccc(F)cc3)c(N)c2C1c1ccc(C(=O)OC)cc1` (stereo not given) gave a z-score of -0.111. With `CCOC(=O)C1CCN(C(=O)c2ccccc2N(C)S(=O)(=O)c2ccccc2)CC1`, the z-score was -0.309.

Turning to `Cc1nn(Cc2ccccc2Cl)c(C)c1C(=O)NCCN1C(=O)S/C(=C\c2ccccc2)C1=O`, the z-score is -0.335. As for `O=C(N/N=C/c1ccco1)c1ccc(N2CCCC2=O)cc1`, the z-score was -0.293.

In turn, `COC(=O)c1sc(N)c(C(=O)OC)c1COC(=O)C1CC(=O)N(Cc2ccco2)C1` (stereo not given) registered a z-score of 0.0251. In the case of `CCCCOC(=O)CCn1[nH]c(=O)c2ccccc2c1=O`, the z-score is -0.399. Molecule `Cc1occc1C(=O)NN=C1C2CC3CC(C2)CC1C3` displayed a z-score of 0.478. In turn, `O=C(Nc1nnc(CSCc2ccc(F)cc2)s1)c1ccc([N+](=O)[O-])cc1` displayed a z-score of 2.51. In the case of `CC1(C(=O)O)Cc2ccccc2C(=O)O1` (stereo not given), the z-score was -0.247. With `CCSc1nc(-c2ccc(OC)cc2)cc(-c2ccc(OC)cc2)c1C#N` the figure was 0.0973; with `CN(C)[C@H]1N(C(=O)c2ccc(Br)cc2)N=C2c3ccccc3S(=O)(=O)N21`, -0.127. In turn, `Cc1cc(C)nc(SCc2n[nH]c(=S)n2C)n1` returned a z-score of -0.361.

For `COC(=O)c1sc(NC(=S)NC(=O)c2cccc(C)c2)nc1C`, the z-score was active: 4.51. `CCN(CC)S(=O)(=O)c1ccc(NS(=O)(=O)c2cccc(C)c2)cc1` displayed a z-score of 0.708.

Regarding `CC(=O)N(C(C)=O)c1cccc2c(N(C(C)=O)C(C)=O)cccc12`, the z-score turned out to be 0.373. `CC(C(=O)NC1=NCCS1)N1C(=O)C2CC=CCC2C1=O` (stereo not given) returned a z-score of -1.7. With `COc1ccc(C)cc1S(=O)(=O)NCCC1=CCCCC1` the figure was -0.147; with `CCc1nnc(N/N=C/c2c(Cl)cccc2Cl)n1N`, 0.00606. `Cn1c(CNC(=O)c2ccc(Cl)cc2)nnc1SCC(=O)Nc1sc2c(c1C#N)CCCC2` yielded a z-score of 0.356. With `COc1ccccc1/C=C/C=N/N1CCN(Cc2cccc3ccccc23)CC1`, the z-score was -0.494. The molecule `CCCCc1c(C)nc2ccc(Br)cc2c1SCCC#N` gave a z-score of -0.487. As to `CN1CCN(C(N)=NC(=O)c2ccccc2)CC1`, the z-score is -0.332.

Consider `O=C(C1CCC1)N1CCN(Cc2ccccc2)CC1`, for which the z-score was -0.147. `COc1cccc(N2CCN(Cc3ccsc3)CC2)c1` showed a z-score of -0.411. Turning to `CCOC(=O)c1c(C)[nH]c(C(=O)COC(=O)CNC(=O)c2ccc(Br)cc2)c1C`, the z-score was -0.279. As for `O=C(NC1CCCCC1)C(c1ccc(F)cc1)N(Cc1ccc2c(c1)OCO2)C(=O)c1cnsn1` (stereo not given), the z-score came to 0.366. `CC1S/C(=N/N=C2CCCCC2)NC1=O` (stereo not given) came in with a z-score of -0.111. `COc1ccc2c(c1)c(C(=O)N/N=C/c1ccc(O)c(O)c1)c(C)n2C`: the z-score was -0.489. `Oc1ccccc1CNc1ncc(Br)cc1Br`: the z-score was -0.314. With `O=C(Cc1cccs1)N(Cc1cccs1)C1(C(=O)NC2CCCCC2)CCCCC1` the figure was -0.122; with `Cc1ccc(-n2c([C@@H]3C[C@H]3c3ccccc3)n[nH]c2=S)cc1`, 0.209; with `CCOCC(=O)Nc1nc2ccccc2s1`, 1.22. `CCOC(=O)c1nnn(-c2nonc2N)c1-c1ccc(OCC)cc1` gave a z-score of -1.5.

For the molecule `COc1ccc2c(c1)SCCC2=O`, the z-score was 0.808. `O=C(Cn1cccc1C(=O)c1ccccc1)NCCN1CCOCC1` came in with a z-score of 0.121.

Molecule `CC1(C)CC2CC(C)(CN2S(=O)(=O)c2ccc(C(=O)Nc3ccc(Cl)c(S(=O)(=O)N4CCOCC4)c3)cc2)C1` (stereo not given) showed a z-score of -0.192.

In turn, `CCCCn1c(SCC(=O)N2CCCCC2C)nc2cc(S(N)(=O)=O)ccc21` (stereo not given) gave a z-score of -0.0364. The molecule `COc1ccc(-c2nn(-c3ccccc3)cc2C(=O)Nc2nccs2)cc1` displayed a z-score of 0.207. The same measure for `c1ccc2c(c1)CCCN2Cc1nnnn1CC1CCCO1` (stereo not given): 0.812; for `Clc1cccc(NCc2nnc(SCc3ccccc3Cl)o2)c1`: -0.167; for `CCOC(=O)C1=C(C)Nc2nc3ccccc3n2C1c1cccs1` (stereo not given): -0.405. Turning to `O=c1c2ccccc2[nH]c(=S)n1CCN1CCN(Cc2ccccc2)CC1`, the z-score is active: 7.91. The molecule `CCN1C(=O)c2ccc(C(=O)NCc3ccccc3)cc2C1=O` gave a z-score of -0.278. Molecule `Cc1ccc(C(=O)NNC(=O)CCCN2C(=O)/C(=C/c3ccccc3Cl)SC2=S)cc1` had a z-score of 0.165.

`COc1ccc(C(=O)/C=C/Nc2cccc(O)c2)cc1` showed a z-score of -0.288. In the case of `O=c1c2ccccc2sn1-c1ccc(S(=O)(=O)N2CCCC2)cc1`, the z-score was -0.648.

For `Cc1c(Nc2c3c(c(C#N)c4nc5ccccc5n24)CCC3)c(=O)n(-c2ccccc2)n1C`, the z-score was -0.534. Consider `COc1ccc(/C=C/C(=O)NC(=S)Nc2ccccc2C(=O)NC2CCCCC2)cc1`, for which the z-score was 0.0315. The same measure for `O=C(c1ccccc1)c1ccc(OCC(O)CN2CCN(Cc3ccccc3)CC2)cc1` (stereo not given): 0.346; for `CCCCOC(=O)C(C)Nc1n[nH]c(=O)[nH]c1=O` (stereo not given): 0.118; for `CC(C)(C)c1cc(C(c2cccnc2)N2CCN(CCO)CC2)cc(C(C)(C)C)c1O` (stereo not given): 0.0819. In the case of `COc1cc2c(cc1NC(=O)c1cccc([N+](=O)[O-])c1C)oc1ccccc12`, the z-score was -0.165. The molecule `CCCCSc1nc2c(=O)[nH][nH]c(=O)c2n1Cc1ccccc1` had a z-score of -1.36.

For the molecule `C=CCn1c(-c2cccc(OC)c2)n[nH]c1=S`, the z-score was -0.21. Molecule `COc1ccc(C2C(C(=O)N3CCN(c4ccccn4)CC3)CC(=O)N2c2ccc(OC)cc2)cc1` (stereo not given) showed a z-score of -0.0727. `COc1cc(Br)cc2cc(C(=O)OC3CCN(C)CC3)c(=O)oc12` registered a z-score of 1.69. The same measure for `Cc1cc(NC(=O)CCC2COc3ccccc3O2)no1` (stereo not given): 0.915; for `CC(=O)Nc1ccc(S(=O)(=O)Nc2nc3ccccc3nc2Nc2ccc3ccccc3c2)cc1`: -0.191; for `O=C1CCC(C(=O)Nc2ccccc2)N1` (stereo not given): 0.234. Take `O=c1c2ccccc2nc(/C=C/c2c[nH]c3ccccc23)n1-c1ccc([N+](=O)[O-])cc1`: the z-score was -0.196. With `O=C(Cn1cnc2ccccc21)N/N=C/c1cccs1` the figure was 0.463. `COc1ccc(Cl)cc1NC(=O)CN1CCC(n2nnc3ccccc32)CC1` returned a z-score of -1.05.

`Cc1cccc(CSc2nnc(NC(=O)c3ccco3)s2)c1` returned a z-score of -0.183.

Take `CCCCCOc1ccc(Br)cc1CSC(=N)N`: the z-score stood at 1.59.

`COc1cc(SC)ccc1C(=O)OC1CCOC1=O` (stereo not given) had a z-score of -0.0339. As for `COc1cc(-c2nnc(COC(=O)c3c4c(nc5ccccc35)CCCC4)o2)cc(OC)c1OC`, the z-score is -0.71. The same measure for `COc1ccc(C2C(C(C)=O)=C(Nc3ccccc3)CC(C)(O)C2C(C)=O)cc1OC` (stereo not given): -0.11; for `COc1ccc(NC(=O)Cn2nnc(C(=O)NCc3ccccc3OC)c2N)cc1Cl`: -0.146.

`COc1ccc(CC(=O)NNC(=O)CSc2nnc(Cc3ccc(OC)cc3)n2-c2ccccc2)cc1` showed a z-score of -0.277. In turn, `O=S(N1CCCCCC1)C12CC3CC(CC(C3)C1)C2` (stereo not given) gave a z-score of -0.453.

The molecule `Cc1cc(C)n(-c2ccc(Cl)c(C(=O)Nc3cc(C(F)(F)F)ccc3Cl)n2)n1` displayed a z-score of 0.25. `CCOC(=O)C(C)Sc1nc(-c2ccccc2)nc2ccc(F)cc12` (stereo not given) came in with a z-score of -0.185. With `COc1ccc(-n2nc(C(=O)Nc3nc4ccc(OC)cc4s3)c3ccccc3c2=O)cc1` the figure was -0.174. For `CCOC(=O)c1[nH]c2ccc(Cl)cc2c1NC(=O)c1nonc1C`, the z-score was -0.0646.

The molecule `COCC(=O)N=Nc1c(O)[nH]c2ccccc12` registered a z-score of -0.146. The molecule `COc1ccc(-c2nc(NC(=O)Cn3ccc(C(F)(F)F)n3)sc2C)cc1` registered a z-score of 0.268. For the molecule `CC(C)(C)c1cc(/C=N/NC(=O)Cc2nc3ccccc3[nH]2)cc(C(C)(C)C)c1O`, the z-score was -0.238.

The molecule `Cc1ccc(S(=O)(=O)C(F)(F)F)cc1NC(=O)c1cccnc1` returned a z-score of -0.181. `CC(C)S(=O)(=O)C1=NSC2=NC(=O)/C(=C\c3ccc(-c4ccccc4)o3)C(=N)N21` gave a z-score of -0.673.
